Source: article PMC4336329 (PLoS ONE, 2015)
Hit rate of the full screen: of about 310,000 compounds, about 2,200 (0.71%) showed an effect of 50% or more. The effect is printed as a negative number. The list shows a part of the results.

Each compound was assayed against human ether-à-go-go-related gene (hERG) potassium channel (human, UniProt Q12809) (assay: primary screen, population patch clamp on CHO cells stably expressing hERG).
Sequence of human ether-à-go-go-related gene (hERG) potassium channel (Q12809 whole entry, looked up): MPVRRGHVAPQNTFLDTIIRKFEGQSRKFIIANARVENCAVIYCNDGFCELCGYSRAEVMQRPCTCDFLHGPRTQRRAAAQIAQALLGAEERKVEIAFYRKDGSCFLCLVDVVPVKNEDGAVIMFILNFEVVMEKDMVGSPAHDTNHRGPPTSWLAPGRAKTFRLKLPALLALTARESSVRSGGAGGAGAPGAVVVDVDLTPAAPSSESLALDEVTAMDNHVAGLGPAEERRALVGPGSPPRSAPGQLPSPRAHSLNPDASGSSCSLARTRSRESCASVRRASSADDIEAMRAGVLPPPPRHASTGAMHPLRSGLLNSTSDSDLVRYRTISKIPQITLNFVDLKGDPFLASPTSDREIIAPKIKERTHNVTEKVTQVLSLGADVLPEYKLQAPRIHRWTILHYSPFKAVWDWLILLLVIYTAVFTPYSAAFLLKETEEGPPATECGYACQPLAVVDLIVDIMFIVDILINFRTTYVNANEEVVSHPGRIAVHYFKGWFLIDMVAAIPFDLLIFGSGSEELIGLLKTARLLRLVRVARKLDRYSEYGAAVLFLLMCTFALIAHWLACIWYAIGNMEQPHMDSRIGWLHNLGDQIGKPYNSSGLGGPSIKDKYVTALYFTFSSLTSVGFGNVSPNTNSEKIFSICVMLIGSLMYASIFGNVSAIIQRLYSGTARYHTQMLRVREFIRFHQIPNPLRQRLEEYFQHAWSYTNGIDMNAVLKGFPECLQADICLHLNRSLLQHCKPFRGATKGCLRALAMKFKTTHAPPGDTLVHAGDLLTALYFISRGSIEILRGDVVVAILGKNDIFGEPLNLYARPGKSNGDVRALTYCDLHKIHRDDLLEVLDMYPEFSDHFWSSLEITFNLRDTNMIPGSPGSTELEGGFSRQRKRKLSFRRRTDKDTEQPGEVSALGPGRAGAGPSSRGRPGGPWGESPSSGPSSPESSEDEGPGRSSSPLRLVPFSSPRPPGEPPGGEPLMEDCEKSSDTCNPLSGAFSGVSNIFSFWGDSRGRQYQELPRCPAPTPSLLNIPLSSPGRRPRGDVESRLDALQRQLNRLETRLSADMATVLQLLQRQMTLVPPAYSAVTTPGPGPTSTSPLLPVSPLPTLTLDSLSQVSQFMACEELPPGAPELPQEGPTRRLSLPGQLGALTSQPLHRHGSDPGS
For CCOC(=O)C1=C(OCc2ccc(Cl)cc2)C2C=C(C)C=CC2N=C1 (stereo not shown), the “hERG current change (%, negative = inhibition) at 1uM” value was -18.1%.
In the case of CCOC(=O)CC1=C(C(=O)OCC)C(c2ccc(OC)cc2OC)C(C#N)=C(N)O1 (stereo not shown), the “hERG current change (%, negative = inhibition) at 1uM” value is reported as 13.6%.
With CC(C)(C)OC(=O)NC1CONC1=O (stereo not shown) the “hERG current change (%, negative = inhibition) at 1uM” value was 10.5%.
With O=C(CN1CCCN(S(=O)(=O)c2ccc(Br)s2)CC1)Nc1ccc(Cl)cc1 the “hERG current change (%, negative = inhibition) at 1uM” value was -10.9%.
CCOc1ccc(NC(=O)CN(C)S(=O)(=O)c2ccc3c(c2)CCC(=O)N3)cc1 was tested, and the “hERG current change (%, negative = inhibition) at 1uM” value was -29.5%.
In the case of Fc1ccc(-n2c(Cc3cccs3)n[nH]c2=S)cc1Cl, the “hERG current change (%, negative = inhibition) at 1uM” value is reported as 4.01%.
In the case of CN(Cc1ccccc1)C(=O)[C@@H]1CCCN1S(=O)(=O)c1ccc(Cl)cc1, the “hERG current change (%, negative = inhibition) at 1uM” value is reported as 6.37%.
CCCCNC(=O)c1cc(S(=O)(=O)N2CCCCC2)oc1C was tested, and the “hERG current change (%, negative = inhibition) at 1uM” value was -0.539%.
In the case of C/C(=N\NC(=O)c1ccccn1)c1ccc(Cl)cc1, the “hERG current change (%, negative = inhibition) at 1uM” value is reported as 11.1%.
In the case of CCOC(=O)C(C)NC(=O)CCc1nnc2ccc(N3CCCCC3)nn12 (stereo not shown), the “hERG current change (%, negative = inhibition) at 1uM” value is reported as 3.73%.
With CCc1ccc(NC(=O)c2cc(-c3ccc4c(c3)OCO4)on2)cc1 the “hERG current change (%, negative = inhibition) at 1uM” value was 7.2%.
With COc1cc(NC(=O)Cc2ccccc2OC)cc(OC)c1 the “hERG current change (%, negative = inhibition) at 1uM” value was -7.74%.
For COc1cccc(N=c2oc3ccccc3cc2-c2nc3ccccc3[nH]2)c1, the “hERG current change (%, negative = inhibition) at 1uM” value was 16.7%.
For NC(=O)COC(=O)c1c2c(nc3ccccc13)CCCC2, the “hERG current change (%, negative = inhibition) at 1uM” value was -5.13%.
With C=CCn1c(O)c(N=NC(=O)c2ccc3c(c2)OCO3)c2ccccc21 the “hERG current change (%, negative = inhibition) at 1uM” value was 10%.
In the case of CC(C)n1c(N2CCN(CC(=O)Nc3ccc4c(c3)OCCO4)CC2)nc2ccccc21, the “hERG current change (%, negative = inhibition) at 1uM” value is reported as -21.4%.
In the case of O=C(Nc1ccc(F)cc1)N(Cc1nnc2n1CCCCC2)c1ccccc1, the “hERG current change (%, negative = inhibition) at 1uM” value is reported as 9.42%.
Cc1sc(NC(=O)C2CCCCC2C(=O)O)c(C(N)=O)c1-c1ccc(C(C)C)cc1 (stereo not shown) was tested, and the “hERG current change (%, negative = inhibition) at 1uM” value was 7.34%.
With CCC(=O)Nc1ccc(OCC2CCCO2)cc1 (stereo not shown) the “hERG current change (%, negative = inhibition) at 1uM” value was 10.9%.
COC1=CCC2([N+](=O)[O-])CN(CC(=O)O)CC1([N+](=O)[O-])C2 (stereo not shown) was tested, and the “hERG current change (%, negative = inhibition) at 1uM” value was 8.97%.
In the case of O=C(O)CSc1ncnc2scc(-c3ccccc3)c12, the “hERG current change (%, negative = inhibition) at 1uM” value is reported as 5.47%.
With C=C1N(c2cccc(Cl)c2)C(=O)OC1(C)C the “hERG current change (%, negative = inhibition) at 1uM” value was 8.03%.
For COc1cc(C(=O)Nc2nc(C)c(Cc3ccc4c(c3)OCO4)s2)cc(OC)c1OC, the “hERG current change (%, negative = inhibition) at 1uM” value was 5.8%.
With CCOC(=O)c1nc2sc3c(c2c(=O)[nH]1)CCC(C)C3 (stereo not shown) the “hERG current change (%, negative = inhibition) at 1uM” value was 6.58%.
For O=C(OCC(O)COc1ccccc1)c1ccc([N+](=O)[O-])cc1 (stereo not shown), the “hERG current change (%, negative = inhibition) at 1uM” value was 10.3%.
With CN(CC(=O)Nc1cccc(F)c1)C(=O)c1cc(=O)[nH]c2ccccc12 the “hERG current change (%, negative = inhibition) at 1uM” value was 5.29%.
In the case of CCCC(=O)Nc1ccc(Cl)c(NC(=O)c2ccc(Br)o2)c1, the “hERG current change (%, negative = inhibition) at 1uM” value is reported as -7.58%.
Cn1c2ccccc2c(=O)c2c(=O)n(Cc3ccco3)c(-c3ccc(Cl)cc3Cl)nc21 was tested, and the “hERG current change (%, negative = inhibition) at 1uM” value was 15.3%.
With COc1ccc(C(=O)OCC(=O)N(C)C2CCS(=O)(=O)C2)cc1Br (stereo not shown) the “hERG current change (%, negative = inhibition) at 1uM” value was 3.84%.
For COc1cc(C)c(CNCCc2c[nH]c3ccccc23)cc1C.O=C(O)C(=O)O, the “hERG current change (%, negative = inhibition) at 1uM” value was 2.06%.
COc1ccc(NC(=O)c2cncn2-c2ccccc2)cc1 was tested, and the “hERG current change (%, negative = inhibition) at 1uM” value was 18.4%.
For CCNS(=O)(=O)c1ccc(NC(=S)NCC2CCCO2)cc1 (stereo not shown), the “hERG current change (%, negative = inhibition) at 1uM” value was 14.6%.
In the case of Cc1cc(N)n(-c2ccc3ccccc3c2)n1, the “hERG current change (%, negative = inhibition) at 1uM” value is reported as 7.74%.
With C=CCN1C(=O)CS/C1=N\N=C\c1cccc([N+](=O)[O-])c1 the “hERG current change (%, negative = inhibition) at 1uM” value was 8.94%.
With CCOP(=O)(OCC)C(Nc1ccccc1)c1ccc2c(c1)OCO2 (stereo not shown) the “hERG current change (%, negative = inhibition) at 1uM” value was 3.51%.
With CCOc1cc(/C=C/c2nc3ccccc3s2)ccc1OCC(=O)N1CCOCC1 the “hERG current change (%, negative = inhibition) at 1uM” value was 2.16%.
In the case of CC(C)C1Oc2ccccc2N(CC(=O)N(Cc2ccccn2)CC2CCCO2)C1=O (stereo not shown), the “hERG current change (%, negative = inhibition) at 1uM” value is reported as 4.71%.
In the case of COc1cc2c(cc1OC)C1(CCCC1)C(N)=C2C#N, the “hERG current change (%, negative = inhibition) at 1uM” value is reported as 11.4%.
With CCc1ccc(NC(=O)CCc2ccc(C)o2)cc1 the “hERG current change (%, negative = inhibition) at 1uM” value was 17.4%.
CC(C)Oc1ccc(C(=O)O)c(C(=O)O)c1 was tested, and the “hERG current change (%, negative = inhibition) at 1uM” value was 0.713%.
With COCCCNC(=O)c1ccc(CS(=O)(=O)c2ccc(Br)cc2)o1 the “hERG current change (%, negative = inhibition) at 1uM” value was 1.99%.
In the case of CNC(=O)NC(=O)C(C)OC(=O)c1c(C)noc1C (stereo not shown), the “hERG current change (%, negative = inhibition) at 1uM” value is reported as 5.52%.
With CC(=O)N1N=C(c2ccccc2)CC1c1ccc(F)cc1 (stereo not shown) the “hERG current change (%, negative = inhibition) at 1uM” value was 10.2%.
CCOC(=O)N1CCN(C(=S)NC(=O)c2ccc(F)c(F)c2)CC1 was tested, and the “hERG current change (%, negative = inhibition) at 1uM” value was 2.95%.
With CN1CCN(CC(O)Cn2c3ccccc3c3ccccc32)CC1.O=C(O)C(=O)O (stereo not shown) the “hERG current change (%, negative = inhibition) at 1uM” value was 8.65%.
With COc1ccc(/C=N/NC(=O)CN(C2=NS(=O)(=O)c3ccccc32)c2ccccc2)cc1 the “hERG current change (%, negative = inhibition) at 1uM” value was 11.1%.
